Data reported in paper PMC5951972.

Molecular target: T1, Human properdin (human), P27918
T1 chain: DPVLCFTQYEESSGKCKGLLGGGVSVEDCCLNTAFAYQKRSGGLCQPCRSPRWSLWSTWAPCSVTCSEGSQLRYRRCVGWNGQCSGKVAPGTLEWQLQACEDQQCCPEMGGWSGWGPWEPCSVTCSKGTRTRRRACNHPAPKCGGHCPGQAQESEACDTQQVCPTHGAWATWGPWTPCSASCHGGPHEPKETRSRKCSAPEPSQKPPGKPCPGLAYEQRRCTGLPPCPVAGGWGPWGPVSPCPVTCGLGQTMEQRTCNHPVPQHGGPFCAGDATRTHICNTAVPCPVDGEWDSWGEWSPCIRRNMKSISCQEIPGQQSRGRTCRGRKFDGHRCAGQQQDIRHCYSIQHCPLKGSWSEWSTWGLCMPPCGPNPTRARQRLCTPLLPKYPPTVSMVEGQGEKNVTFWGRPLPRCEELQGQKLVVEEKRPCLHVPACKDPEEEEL
Assay: SEC
Conditions: remark: other sources report otherwise

B1: Human properdin, P27918 28-469 (natural protein)
chain: T1 chain
modifications: here or on the partner: glycosylated (as printed: glycosylated monomer, band at 55 kDa); glycosylated (as printed: glycosylated monomer, band at 55 kDa)
  stoichiometry N: 2 and 3

Several values for one entry are separate records, joined by “and”; a condition that tells them apart may be missing. Identical values can stand only once.
